{
  "source": "PubChem BioAssay AID504845",
  "about": "(National Center for Advancing Translational Sciences (NCATS), 2011)",
  "note": "Screen size: about 390,000 compounds; about 150 (0.038%) were called active. The shares of active, inactive and inconclusive entries below differ from those in the screen. Calls come from the whole dose curve; as a rule, active = well fitted inhibition curve with a large enough effect; inconclusive = small, poorly fitted or top-dose-only effect; inactive = no such curve, though single readings can be large or run the other way. Potencies of inconclusive entries are doubtful fits and often do not repeat. Potency is the fitted concentration of half-maximal effect; tags give direction and shape of the fitted curve.",
  "data": [
    {"molecular_target": "Regulator of G-protein signaling 4 (Homo sapiens) (UniProt P49798)", "sequence (P49798 whole entry, looked up)": "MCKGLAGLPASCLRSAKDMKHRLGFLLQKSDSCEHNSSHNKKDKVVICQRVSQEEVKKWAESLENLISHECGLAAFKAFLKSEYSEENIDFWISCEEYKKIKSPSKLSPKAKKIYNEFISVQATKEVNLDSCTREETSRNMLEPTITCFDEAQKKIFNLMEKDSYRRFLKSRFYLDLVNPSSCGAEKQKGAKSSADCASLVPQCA", "test": "Inhibitors of Regulator of G Protein Signaling (RGS) 4: qHTS; note: nearly all actives have a fitted effect of over 75% in size", "conditions": "Transcreener GDP fluorescence polarization, RGS4-accelerated GTP hydrolysis; series mostly up to 114 µM", "method_in_brief": "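MLSMR compounds (23 nl, pin-transferred) preincubated 10 min at room temperature with a 500nM (2x) first reagent, then RGS4 at 900nM (2x) plus Transcreener GDP mix added; fluorescence polarization (620/688 nm) read before and after 90 min at 30 °C.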", "values": [
      {"smiles": "CN(C)N=Nc1ccc(-c2cn(Cc3ccccc3)cn2)cc1", "Potency": "inconclusive: 50.1 µM [inhibitor, partial curve, poor fit]"},
      {"smiles": "CCOc1ccc(CNC(=O)C2CCN(C(=O)c3ccc(-n4ccc5ccccc54)s3)CC2)cc1", "Potency": "inconclusive: 70.8 µM [inhibitor, single point]"},
      {"smiles": "Cc1cccc(NC(=O)Cn2c(=O)n(CCCCCC(=O)NCc3ccccc3)c(=O)c3sccc32)c1", "Potency": "inconclusive: 31.6 µM [inhibitor, full curve, poor fit]"},
      {"smiles": "CN(C)CCCNC(=O)c1ccc(CN(c2ccccc2)S(C)(=O)=O)cc1", "Potency": "inactive"},
      {"smiles": "Cc1ccccc1CCNC(=O)c1ccc(Cn2c(=O)c3cccn3c3cccnc32)cc1", "Potency": "inconclusive: 50.1 µM [inhibitor, partial curve, poor fit]"},
      {"smiles": "C=C(CN(C)C)C(=O)c1ccc(OC2OC(COC(C)=O)C(OC(C)=O)C(OC(C)=O)C2OC(C)=O)cc1", "note": "(stereo unspecified)", "Potency": "inconclusive: 44.7 µM [inhibitor, partial curve, poor fit]"},
      {"smiles": "O=C1NC(=O)/C(=C/c2ccc3nccnc3c2)S1", "Potency": "inconclusive: 5.97 µM [inhibitor, partial curve, poor fit]"},
      {"smiles": "NS(=O)(=O)c1ccc(O)c(NC(=O)c2ccc([N+](=O)[O-])o2)c1", "Potency": "inconclusive: 25.1 µM [inhibitor, full curve, poor fit]"},
      {"smiles": "N#C/C(=N\\Nc1ccc([N+](=O)[O-])cc1)C(=N)N1CCOCC1", "Potency": "inactive"},
      {"smiles": "O=C(Nc1cccc(-c2cn3cccnc3n2)c1)c1ccc(Br)o1", "Potency": "inconclusive: 89.1 µM [inhibitor, single point]"},
      {"smiles": "COc1ccc(Cl)cc1NC(=O)CSc1nccn1-c1ccc(Cl)cc1", "Potency": "inconclusive: 56.2 µM [inhibitor, partial curve, poor fit]"},
      {"smiles": "Cc1cc(/C=C(/C#N)c2nc3ccccc3[nH]2)c(C)n1-c1cccc([N+](=O)[O-])c1", "Potency": "inconclusive: 79.4 µM [inhibitor, partial curve, poor fit]"},
      {"smiles": "O=c1[nH]c2ccc(Cl)cc2c(-c2ccccc2)c1SC(=S)N1CCOCC1", "Potency": "inconclusive: 44.7 µM [inhibitor, partial curve, poor fit]"},
      {"smiles": "CCOC(=O)N1CCN(S(=O)(=O)c2ccc(OCC)cc2)CC1", "Potency": "inactive"},
      {"smiles": "Cc1cccc(NC(=O)CSC2=Nc3ccccc3C3=NC(CC(=O)NCc4cccs4)C(=O)N23)c1", "note": "(stereo unspecified)", "Potency": "inactive"},
      {"smiles": "Nc1nc(-c2ccccc2)c(N=Nc2ccccc2Cl)s1", "Potency": "inactive"},
      {"smiles": "COc1cc(CN2CCNC(=O)C2CC(=O)N(C)Cc2cccnc2)cc(OC)c1", "note": "(stereo unspecified)", "Potency": "inconclusive: 44.7 µM [inhibitor, partial curve, poor fit]"},
      {"smiles": "CCc1nn(C(C)C(=O)NC(C)CCc2ccco2)c(=O)c2cc3occc3n12", "note": "(stereo unspecified)", "Potency": "inconclusive: 17.8 µM [inhibitor, full curve, poor fit]"},
      {"smiles": "CCN(CC)c1ccc(/C=C(/C#N)C(=O)NCc2ccccc2)o1", "Potency": "inconclusive: 79.4 µM [inhibitor, partial curve, poor fit]"},
      {"smiles": "COc1ccc(C)cc1NC(=O)c1ccc(CN2CCc3ccccc3C2)cc1", "Potency": "inactive"},
      {"smiles": "C/C(=N\\NC(=O)c1cccs1)C(C)(C)C", "Potency": "inconclusive: 100 µM [inhibitor, single point]"},
      {"smiles": "CC(C)(C)[C@@H]1CCC(=O)N(CC[C@H](N=[N+]=[N-])c2ccccc2)CC1", "Potency": "inactive"},
      {"smiles": "CCOC(=O)c1c(NC(=O)c2cc(C)on2)sc(C)c1C", "Potency": "inconclusive: 17.8 µM [inhibitor, full curve, poor fit]"},
      {"smiles": "CC(=O)c1ccc(OCCCN2CCCCC2)cc1", "Potency": "inactive"},
      {"smiles": "COc1ccc(NC(=O)CCCNC(=O)Cn2cnc3sc4c(c3c2=O)CCCC4)c(OC)c1", "Potency": "inconclusive: 89.1 µM [inhibitor, single point]"},
      {"smiles": "O=C(CSc1nc2ccsc2c(=O)n1CC1CCC(C(=O)O)CC1)c1ccc(F)cc1", "note": "(stereo unspecified)", "Potency": "inconclusive: 100 µM [inhibitor, single point]"},
      {"smiles": "COc1cc(SC#N)ccc1N=Cc1c(C)[nH]n(-c2ccc(C)cc2C)c1=O", "Potency": "inconclusive: 17.8 µM [inhibitor, full curve, poor fit]"},
      {"smiles": "Cc1cc(NC(=O)c2ccccc2F)ncc1NC(=O)c1cccs1", "Potency": "inconclusive: 35.5 µM [inhibitor, partial curve, poor fit]"},
      {"smiles": "COC(=O)c1cc(S(=O)(=O)NCC2CCN(Cc3ccc(C)cc3)CC2)c[nH]1", "Potency": "inactive"},
      {"smiles": "O=C(O)c1ccc(N2C(=O)c3[nH]nc(-c4ccccc4)c3C2c2ccccc2)cc1", "note": "(stereo unspecified)", "Potency": "inconclusive: 89.1 µM [inhibitor, single point]"},
      {"smiles": "COC(=O)C(CC(=O)c1ccc(Br)cc1)n1cccn1", "note": "(stereo unspecified)", "Potency": "inconclusive: 56.2 µM [inhibitor, partial curve, poor fit]"},
      {"smiles": "CC1(C)CCN2CCC(C)(C)c3c(O)ccc1c32", "Potency": "inconclusive: 50.1 µM [inhibitor, partial curve, poor fit]"},
      {"smiles": "O=C(NCc1nnnn1-c1ccc(F)cc1)c1ccc([N+](=O)[O-])o1", "Potency": "inactive"},
      {"smiles": "COc1cccc(NC(=O)C2CC2(c2cccc(OC)c2)c2cccc(OC)c2)c1", "note": "(stereo unspecified)", "Potency": "inconclusive: 89.1 µM [inhibitor, single point]"},
      {"smiles": "Cn1c(CSCc2ccccc2Cl)nnc1SCC(=O)Nc1nccs1", "Potency": "inconclusive: 79.4 µM [inhibitor, single point]"},
      {"smiles": "Cc1ccc(NC(=S)/C(=C(\\[O-])c2ccc(Cl)s2)[n+]2cccc(CO)c2)cc1C", "Potency": "inactive"},
      {"smiles": "Cc1ccc(-c2nn3c(C)nnc3s2)cc1NC(=O)c1ccc(-c2ccc(Cl)cc2Cl)o1", "Potency": "inconclusive: 28.2 µM [inhibitor, full curve, poor fit]"},
      {"smiles": "Nc1nc(Nc2ccccc2)nc(NC2CCCCC2)c1[N+](=O)[O-]", "Potency": "inactive"},
      {"smiles": "CC1CCN(S(=O)(=O)c2ccc3c(c2)CCC(=O)N3CC(=O)Nc2cccc(C#N)c2)CC1", "Potency": "inactive"},
      {"smiles": "CCCCNC(=O)/C(=C\\c1ccc([N+](=O)[O-])o1)NC(=O)c1ccccc1", "Potency": "inconclusive: 44.7 µM [inhibitor, partial curve, poor fit]"},
      {"smiles": "O=C1C2C(c3ccccc3)C=CC(c3ccccc3)C2C(=O)N1CCCO", "note": "(stereo unspecified)", "Potency": "inconclusive: 79.4 µM [inhibitor, single point]"},
      {"smiles": "CCCNC(=O)Nc1ccc(NC(C)=O)cc1", "Potency": "inconclusive: 44.7 µM [inhibitor, partial curve, poor fit]"},
      {"smiles": "Cc1cc2[nH]c(=O)c(=O)[nH]c2cc1S(=O)(=O)NCc1ccc(Cl)cc1", "Potency": "inconclusive: 89.1 µM [inhibitor, single point]"},
      {"smiles": "COc1ccc(CNC(=O)C2CC(c3ccc(F)cc3)=NO2)cc1", "note": "(stereo unspecified)", "Potency": "inactive"},
      {"smiles": "O=C(/C=C\\c1ccccc1)Nc1ccc(NC(=O)c2ccco2)cc1", "Potency": "inconclusive: 44.7 µM [inhibitor, partial curve, poor fit]"},
      {"smiles": "CN1/C(=C/C(=O)c2nc(S(C)(=O)=O)ncc2Cl)C(C)(C)c2ccccc21", "Potency": "inconclusive: 50.1 µM [inhibitor, partial curve, poor fit]"},
      {"smiles": "CCc1ccc(CN2CCN(c3ncccn3)CC2)cc1", "Potency": "inactive"},
      {"smiles": "COc1ccc2[nH]c(=O)c(-c3nnn(-c4ccc(Cl)nc4)n3)cc2c1", "Potency": "inconclusive: 79.4 µM [inhibitor, partial curve, poor fit]"},
      {"smiles": "Cc1ccc(N=Nc2c(N)nn(-c3ccccc3)c2N)cc1", "Potency": "inactive"},
      {"smiles": "Cc1ccc(C)c(CS(=O)(=O)c2cn(CC(=O)N(C(C)C)C(C)C)c3ccccc23)c1", "Potency": "inactive"},
      {"smiles": "Cc1ccc(/C([O-])=C(/C(=S)NCc2ccco2)[n+]2ccccc2)cc1[N+](=O)[O-]", "Potency": "inconclusive: 44.7 µM [inhibitor, partial curve, poor fit]"},
      {"smiles": "CCC(C)NC(=O)CNC(=O)c1nn(-c2ccc(OC)c(Cl)c2)c(=O)c2ccccc12", "note": "(stereo unspecified)", "Potency": "inactive"},
      {"smiles": "O=c1c(O)c(-c2ccc(O)cc2O)oc2cc(O)cc(O)c12", "Potency": "inconclusive: 29.9 µM [inhibitor, partial curve, poor fit]"},
      {"smiles": "COc1ccc2c(C#CCCO)c(-c3ccc(S(C)(=O)=O)cc3)sc2c1", "Potency": "inconclusive: 56.2 µM [inhibitor, partial curve, poor fit]"},
      {"smiles": "O=C(CN1CCN(c2ccccc2)CC1)N1N=CCC1c1ccccc1", "note": "(stereo unspecified)", "Potency": "inactive"},
      {"smiles": "O=C(Nc1cccc2c1CCCC2)c1ccc(Br)o1", "Potency": "inconclusive: 70.8 µM [inhibitor, single point]"},
      {"smiles": "COc1ccc(CN(C)C(=O)CCC(=O)N2CCN(S(=O)(=O)c3ccc(Cl)cc3)CC2)c(OC)c1", "Potency": "inactive"},
      {"smiles": "c1csc(CCCN2CCCCC2)c1", "Potency": "inconclusive: 89.1 µM [inhibitor, single point]"},
      {"smiles": "CCOCCCNC(=S)NNC(=O)CCn1nc(C)c(Br)c1C", "Potency": "inactive"},
      {"smiles": "O=C(O)CCN1CCc2ccccc2C1c1ccncc1", "note": "(stereo unspecified)", "Potency": "inactive"},
      {"smiles": "Cc1ccc(-c2nc3cccc(C)n3c2Nc2ccc(F)cc2)o1", "Potency": "inconclusive: 17.8 µM [inhibitor, full curve, poor fit]"},
      {"smiles": "COC(=O)c1c(NC(=O)C2CCCCC2)sc2c1CC(C)(C)NC2(C)C", "Potency": "inactive"},
      {"smiles": "COc1ccccc1CNC(=O)C/C(C)=N/NC(=O)COc1ccc(C)cc1Br", "Potency": "inactive"},
      {"smiles": "C[N+](C)(CCOc1ccccc1)Cc1ccccc1", "note": "(tested in a mixture with another compound)", "Potency": "inconclusive: 50.1 µM [inhibitor, partial curve, poor fit]"},
      {"smiles": "CCOC(=O)C1=C(C)N=c2s/c(=C/c3cccc([N+](=O)[O-])c3O)c(=O)n2C1c1cc(OC)c(OC)c(OC)c1", "note": "(stereo unspecified)", "Potency": "inconclusive: 79.4 µM [inhibitor, partial curve, poor fit]"},
      {"smiles": "Cc1ccc(-c2ccc(/C=C(\\C#N)C(N)=S)o2)c([N+](=O)[O-])c1", "Potency": "inconclusive: 20 µM [inhibitor, full curve, poor fit]"}
    ]}
  ]
}
